Experimental data: PubChem BioAssay AID652104 (National Center for Advancing Translational Sciences (NCATS), 2013)
Screen size: about 410,000 compounds; about 7,200 (1.8%) were called active. The inconclusive results got no clear call from the source; some entries with a clear call stand among them for comparison. Calls come from the whole dose curve; as a rule, active = well fitted activation curve with a large enough effect; inconclusive = small, poorly fitted or top-dose-only effect, or another doubt; inactive = no such curve, though single readings can be large or run the other way. Potencies of inconclusive entries are left out as doubtful fits.

Assay: qHTS of TDP-43 Inhibitors; note: nearly all actives have a fitted effect of over 50% in size; for growth rescue (activation): % of control where 0% means no effect
Conditions: TDP-43 expressing yeast growth rescue, BacTiter-Glo, 24 h; growth rescue (activation): at 46.1 µM (top of the series) unless noted
Procedure, shortened: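 In this qHTS, compounds that restore growth of yeast expressing TDP-43 appear as activators. Cells (OD600=0.02, galactose medium, raffinose-pregrown) are incubated with compound 24 hr at 30 deg C and growth is quantified by BacTiter-Glo.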
Potency is the fitted concentration of half-maximal effect; tags give direction and shape of the fitted curve.

| SMILES | Potency | growth rescue (activation) |
| --- | --- | --- |
| Cc1cccc(C)c1NC(=O)CN(C)C(=O)/C=C/c1cccs1 | inconclusive [activator, full curve, poor fit] |  |
| COc1ccccc1NC(=O)CSc1nnc2c3ccccc3n(C(C)C)c2n1 | inconclusive [activator, single point] |  |
| O=C(NCc1ccccc1)c1cc(C2CCCN(S(=O)(=O)c3cccc4cccnc34)C2)on1 (centres undefined) | inconclusive [activator, partial curve, poor fit] |  |
| COc1ccccc1CN1[C@@H](CC(C)=O)c2cc(C(F)(F)F)ccc2S1(=O)=O | inconclusive [activator, partial curve] |  |
| O=C(O)CC(C(=O)O)N1C(=O)/C(=C/C=C/c2ccco2)SC1=S (centres undefined) |  | inactive: 12.4% |
| O=C(Nc1nnc(S(=O)(=O)N2CCN(c3ccc(F)cc3)CC2)s1)c1ccccc1 |  | inactive: 5.84% |
| O=C(Nc1ccc(F)c(Cl)c1)C1Cc2c(-c3ccco3)ccnc2O1 (centres undefined) | inconclusive [activator, partial curve] |  |
| CCN(C(=O)CSc1nc2ccccc2n1CC(=O)NCc1ccc(OC)cc1)c1ccccc1 |  | inactive: 1.86% |
| CC1(C)Cc2cccc(OCC(=O)NCCc3ccccc3)c2O1 |  | inconclusive: 31.5% [activator] |
| Cc1cc(SCC(=O)N2CCN(C(=O)c3ccco3)CC2)c(C)cc1Br | active: 25.1 µM |  |
| CCOC(=O)c1cc(-c2ccccc2)n(CCC(=O)NC2CCCCC2)c1C |  | inactive: -6.1% |
| CC(C)C(=O)Nc1nc(-c2ccccc2)ns1 | active: 12.6 µM |  |
| CCOC(=O)c1cccc(NC(=O)Cn2c(=O)nc(-c3ccccc3F)c3cc(Cl)ccc32)c1 | inconclusive [activator, single point] |  |
| CCOc1ccc(CCNC(=O)c2csc3c2CCCCC3)cc1 |  | inactive: 9.4% |
| COc1cccc(CNC(=O)CCCN2C(=O)CCn3nc(-c4cccn4C)cc32)c1 | inconclusive [activator, partial curve] |  |
| COc1ccccc1CNC(=O)c1cc(-c2ccc(F)cc2OC)n[nH]1 | inconclusive [activator, single point] |  |
| O=C(COC(=O)CCC1CCCC1)NCc1ccc(Cl)cc1 | inconclusive [activator, single point] |  |
| COc1ccc(OC)c(NC(=O)COC(=O)C2CCCCC2)c1 | inconclusive [activator, single point] |  |
| COC(=O)c1ccc(NC(=S)NC(=O)C2CCC2)cc1 | inconclusive [activator, partial curve] |  |
| Brc1cccc(Nc2nc(-c3cccnc3)cs2)c1 | active: 3.16 µM |  |
| Cc1ccc2ccccc2c1C(O)c1ncc(-c2ccc(C(F)(F)F)cc2)[nH]1 (centres undefined) | inconclusive [activator, partial curve, poor fit] |  |
| O=C(Cc1ccccc1F)Nc1nc(-c2ccc(F)c(F)c2)cs1 | inconclusive [activator, partial curve] |  |
| CC1CC(C)CN(S(=O)(=O)c2ccc(C(=O)Nc3sccc3C(N)=O)cc2)C1 (centres undefined) | inconclusive [activator, partial curve] |  |
| CC(=O)N1N=C(c2ccc(Br)cc2)CC1c1cn(C)c2ccccc12 (centres undefined) | active: 25.1 µM |  |
| O=C1C(Cl)=C(Nc2cccc(O)c2)C(=O)N1Cc1ccccc1 | inconclusive [activator, single point] |  |

| SMILES | Potency | growth rescue (activation) |
| --- | --- | --- |
| CCCCSCCCNC(=O)c1cn(CC)c2ccc(S(=O)(=O)N3CCCCCC3)cc2c1=O | inconclusive [activator, partial curve] |  |
| c1ccc2c(c1)OCCOCCOc1ccccc1OCCOCCO2 | active: 11.2 µM |  |
| CCOc1ncccc1C(=O)OCC(=O)NCc1ccc(C(=O)OC)cc1 | inconclusive [activator, partial curve] |  |
| CC(=O)c1cccc(NC(=O)C2Cc3c(-c4ccc(Cl)cc4)ccnc3O2)c1 (centres undefined) | inconclusive [activator, single point] |  |
| CN(CCOc1ccc(Cl)cc1)C(=O)c1cc([N+](=O)[O-])ccc1N1CCOCC1 | inconclusive [activator, partial curve] |  |
| COc1cccc(NC(=O)Nc2cc(C)on2)c1 | inconclusive [activator, partial curve] |  |
| O=C(C(=O)N1CCN(c2ccccc2F)CC1)c1c[nH]c2ccccc12 | inconclusive [activator, partial curve] |  |
| CC(=O)/C=C\c1ccc(OC(=O)c2cccnc2)cc1 | active: 20 µM |  |
| CCCc1[nH]nc2c1C(Cc1ccccc1)C(C#N)=C(N)O2 (centres undefined) |  | inactive: -3.49% |
| Cc1noc(C)c1S(=O)(=O)Nc1ccc(C(=O)Nc2ccc(Br)cc2)cc1 |  | inactive: 9.76% |
| Cc1nc2c(c(=O)c3ccccc3n2C)c(=O)n1C1CCCCCC1 |  | inactive: -17.9% |
| CCOC(=O)N1CCc2[nH]c3ccc(C)cc3c2C1 | inconclusive [activator, single point] |  |
| Cc1ccc2nc(NC(=O)CSc3nccn3Cc3ccc(Cl)cc3)sc2c1 | active: 11.2 µM |  |
| CCOC(=O)c1nnc(-c2cccs2)nc1NC(C)C | active: 12.6 µM |  |
| COc1ccc(C(=O)N/N=C(\C)CC(=O)Nc2ccc3c(c2)OCCO3)c(OC)c1 |  | inactive: -17.9% |
| COc1cccc(Cn2nnc(C(=O)Nc3cc(C)ccc3C)c2N)c1 | inconclusive [activator, single point] |  |
| CC(C)COc1ccc(N)cc1OCC(C)C | active: 11.2 µM |  |
| CC(C)CS(=O)(=O)c1oc(-c2ccc(F)cc2)nc1S(=O)(=O)c1ccccc1 | active: 20 µM |  |
| COc1ccc(C(C)(NC(C)=O)c2nc(-c3cccc(C(F)(F)F)c3)cs2)cc1 (centres undefined) | active: 35.5 µM |  |
| O=S(=O)(NCCC1=CCCCC1)c1ccccc1Br |  | inconclusive: 35.3% [activator] |
| COc1cccc(Cn2c(Oc3ccccc3)nc3c2c(=O)n(C)c(=O)n3C)c1 | inconclusive [activator, single point] |  |
| O=[N+]([O-])c1ccccc1S(=O)(=O)NCCC1=CCCCC1 | inconclusive [activator, single point] |  |
| CCOc1ccccc1NC(=O)c1c(NC(=O)COc2ccccc2)sc2c1CCCCC2 |  | inactive: -9.89% |
| CCCn1cc(S(=O)(=O)c2ccccc2)c(=O)c2cc(F)c(N3CCCCC3)cc21 | inconclusive [activator, partial curve] |  |
| CCOC(=O)c1cnc2c(ccc3ccccc32)c1Nc1ccccc1OCC |  | inactive: 13.3% |

| SMILES | Potency | growth rescue (activation) |
| --- | --- | --- |
| Cc1cc2nc3c(nc2cc1C)C1(C(=O)N(C)C)CCC3(C)C1(C)C (centres undefined) | inconclusive [activator, single point] |  |
| Cc1cc(C)n(CC(O)Cn2c3ccccc3c3ccccc32)n1 (centres undefined) | inconclusive [activator, single point] |  |
| CC(C)NC(=O)CSc1ccccc1C(=O)NNC(=O)Cn1ccc(C(F)(F)F)n1 |  | inactive: 28% |
| O=C(Nc1cccc(Cl)c1)N1CCSc2ccccc21 | inconclusive [activator, single point] |  |
| CC1(C)CC(=O)C(C=Nc2cccnc2/N=C/C2=C(O)CC(C)(C)CC2=O)=C(O)C1 | inconclusive [activator, single point] |  |
| CCOC(=O)c1cc(-c2ccccc2)n(-c2cccc(C(=O)Nc3cccc(F)c3)c2)c1C |  | inactive: 4.11% |
| O=C(O)COc1ccccc1C(Nc1ccccn1)c1cc(Cl)c2cccnc2c1O (centres undefined) |  | inactive: 5.83% |
| COc1ccc(-c2cc(NC=O)c3ncc(-c4cc(OC)c(OC)c(OC)c4)n3c2)cc1 | inconclusive [activator, single point] |  |
| CCNC(=S)N/N=C/c1cc(C)n(-c2ccc(Cl)cc2)c1C | inconclusive [activator, single point] |  |
| O=S(=O)(c1cc(Cl)ccc1Cl)N1CCCCC1 | active: 15.8 µM |  |
| CSc1ccc(Cl)c(C(=O)N2CCOc3ccccc32)c1 | inconclusive [activator, single point] |  |
| CCOC(=O)c1c(N)sc2c(O)c(Br)ccc12 | active: 11.2 µM |  |
| O=C(Nc1ccc(Oc2ccccc2)cc1)C1CCN(c2ncccn2)CC1 |  | inactive: 0% |
| CN(C)c1ccc(/C=N\NC(=S)SCN2C(=O)C3CCC(C)(C2=O)C3(C)C)cc1 (centres undefined) | active: 12.6 µM |  |
| S=C(Nc1ccc(Br)cc1)NC1CCCCC1 | inconclusive [activator, partial curve] |  |
| C/C(=N/OC(=O)c1ccc(C)cc1)c1cccs1 |  | inactive: -12% |
| Cc1ccc(C(=O)N2CCC3(CC2)Oc2ccc(F)cc2C(=O)C32CC(c3cccnc3)=NO2)s1 (centres undefined) |  | inactive: -15.5% |
| CCc1cc2c(N3CCN(c4ccccc4)CC3)ncnc2s1 | active: 12.6 µM |  |
| CCNC(=S)SCCOc1ccccc1C | inconclusive [activator, full curve] |  |
| Cc1ccc(Cc2nc3ccccc3nc2SCC(=O)NCCC(C)C)cc1 | inconclusive [activator, full curve, poor fit] |  |
| Cc1ccc(Cc2c(C)nc3nc(SCC(=O)NC(C)c4ccccc4)nn3c2C)cc1 (centres undefined) | inconclusive [activator, partial curve] |  |
| O=C1C=CC(=O)N1CCCCCCN1C(=O)C=CC1=O |  | inconclusive: -94% [activator] |
| CC1(C(=O)Nc2ccc3[nH]ncc3c2)CCN1C(=O)CC(c1ccccc1)c1ccccc1 (centres undefined) | inconclusive [activator, single point] |  |
| CCn1nc([N+](=O)[O-])c(C(C#N)c2nc3cc(C(F)(F)F)ccc3s2)c(Cl)c1=O (centres undefined) | inconclusive [activator, single point] |  |
